The supplement of paper PMC4967469

Compound: Cn1c(=O)n(-c2ccc(C(C)(C)C#N)cc2)c2c3cc(-c4cnc5ccccc5c4)ccc3ncc21 [NVP-BEZ235]
Assay: Viability of human cancer cell lines after 72 h of drug (GDSC screen)
Procedure: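 Human cancer cell lines in 384-well plates, medium with 10% serum, drug for 72 h over a 256-fold dose range (nine 2-fold or five 4-fold steps up to the top dose). Adherent lines were fixed and stained with the nucleic acid dye Syto60, suspension lines read with resazurin; signal relative to control wells, capped at 0 and 100%. One two-parameter sigmoid per drug and line, fitted in a mixed model over all curves with the slope shared within a line.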

| Cell Line | AUC | IC50 [nM] |
| --- | --- | --- |
| COLO-800 (melanoma, adherent, top dose 0.25 µM) | 0.642 | 38.2 |
| COLO-824 (breast, adherent, top dose 0.25 µM) | 0.913 | > 250 |
| COR-L23 (large cell lung carcinoma, adherent, top dose 0.25 µM) | 0.685 | 50.6 |
| COR-L88 (small cell lung carcinoma, adherent, top dose 0.25 µM) | 0.887 | > 250 |
| COR-L95 (small cell lung carcinoma, adherent, top dose 0.25 µM) | 0.967 | > 250 |
| COR-L279 (small cell lung carcinoma, suspension, top dose 0.25 µM) | 0.862 | 177 |
| COR-L321 (lung, suspension, top dose 0.25 µM) | 0.919 | > 250 |
| CP50-MEL-B (melanoma, adherent, top dose 0.25 µM) | 0.735 | 72.6 |
| CP66-MEL (melanoma, adherent, top dose 0.25 µM) | 0.884 | > 250 |
| CPC-N (small cell lung carcinoma, suspension, top dose 0.25 µM) | 0.81 | 146 |
| CRO-AP2 (B-cell lymphoma, suspension, top dose 0.25 µM) | 0.432 | 10.5 |
| CS1 (bone, adherent, top dose 0.25 µM) | 0.629 | 37.2 |
| CTB-1 (B-cell lymphoma, suspension, top dose 0.25 µM) | 0.615 | 36.4 |
| CTV-1 (acute myeloid leukaemia, suspension, top dose 0.25 µM) | 0.665 | 40.6 |
| CW-2 (large intestine, adherent, top dose 0.25 µM) | 0.882 | > 250 |
| Ca9-22 (head and neck, adherent, top dose 0.25 µM) | 0.627 | 34 |
| Ca-Ski (cervix, adherent, top dose 0.25 µM) | 0.694 | 59 |
| CaR-1 (large intestine, adherent, top dose 0.25 µM) | 0.712 | 85 |
| Calu-3 (lung adenocarcinoma, adherent, top dose 0.25 µM) | 0.726 | 82 |
| Calu-6 (lung adenocarcinoma, adherent, top dose 0.25 µM) | 0.962 | > 250 |
| Caov-4 (ovary, adherent, top dose 0.25 µM) | 0.969 | > 250 |
| Capan-2 (pancreas, adherent, top dose 0.25 µM) | 0.962 | > 250 |
| ChaGo-K-1 (non-small cell lung carcinoma, adherent, top dose 0.25 µM) | 0.838 | 210 |
| D-247MG (glioma, adherent, top dose 0.25 µM) | 0.761 | 121 |
| D-263MG (glioma, adherent, top dose 0.25 µM) | 0.58 | 27.1 |
| D-283MED (medulloblastoma, adherent, top dose 0.25 µM) | 0.686 | 49 |
| D-392MG (glioma, adherent, top dose 0.25 µM) | 0.729 | 90.3 |

| Cell Line | AUC | IC50 [nM] |
| --- | --- | --- |
| D-423MG (glioma, adherent, top dose 0.25 µM) | 0.687 | 59 |
| D-502MG (glioma, adherent, top dose 0.25 µM) | 0.728 | 102 |
| D-542MG (glioma, adherent, top dose 0.25 µM) | 0.729 | 82.2 |
| D-566MG (glioma, adherent, top dose 0.25 µM) | 0.548 | 21 |
| DAN-G (pancreas, adherent, top dose 0.25 µM) | 0.715 | 57.7 |
| DB (B-cell lymphoma, suspension, top dose 0.25 µM) | 0.593 | 29.2 |
| DBTRG-05MG (glioma, adherent, top dose 0.25 µM) | 0.646 | 42.8 |
| DEL (lymphoid neoplasm, suspension, top dose 0.25 µM) | 0.934 | > 250 |
| DG-75 (Burkitt lymphoma, suspension, top dose 0.25 µM) | 0.618 | 33.1 |
| DIFI (large intestine, adherent, top dose 0.25 µM) | 0.802 | 129 |
| DJM-1 (skin, adherent, top dose 0.25 µM) | 0.867 | 223 |
| DK-MG (glioma, adherent, top dose 0.25 µM) | 0.783 | 165 |
| DMS-79 (small cell lung carcinoma, suspension, top dose 0.25 µM) | 0.895 | > 250 |
| DMS-114 (small cell lung carcinoma, adherent, top dose 0.25 µM) | 0.739 | 84.5 |
| DMS-273 (small cell lung carcinoma, adherent, top dose 0.25 µM) | 0.709 | 63.4 |
| DND-41 (T-cell leukaemia, suspension, top dose 0.25 µM) | 0.822 | 124 |
| DOHH-2 (B-cell lymphoma, suspension, top dose 0.25 µM) | 0.664 | 44 |
| DOK (head and neck, adherent, top dose 0.25 µM) | 0.534 | 20.2 |
| DOV13 (ovary, adherent, top dose 0.25 µM) | 0.551 | 22 |
| DSH1 (bladder, adherent, top dose 0.25 µM) | 0.875 | 227 |
| DU-145 (prostate, adherent, top dose 0.25 µM) | 0.977 | > 250 |
| DU-4475 (breast, suspension, top dose 0.25 µM) | 0.692 | 47.9 |
| Daudi (Burkitt lymphoma, suspension, top dose 0.25 µM) | 0.857 | 163 |
| Detroit562 (head and neck, adherent, top dose 0.25 µM) | 0.765 | 88.4 |
| DoTc2-4510 (cervix, adherent, top dose 0.25 µM) | 0.924 | > 250 |
| EB2 (Burkitt lymphoma, suspension, top dose 0.25 µM) | 0.901 | > 250 |
| EB-3 (Burkitt lymphoma, suspension, top dose 0.25 µM) | 0.776 | 117 |

| Cell Line | AUC | IC50 [nM] |
| --- | --- | --- |
| EBC-1 (lung squamous cell carcinoma, adherent, top dose 0.25 µM) | 0.633 | 38.2 |
| EC-GI-10 (oesophagus, adherent, top dose 0.25 µM) | 0.492 | 14.9 |
| ECC10 (stomach, suspension, top dose 0.25 µM) | 0.679 | 50.8 |
| EFM-192A (breast, adherent, top dose 0.25 µM) | 0.71 | 65.8 |
| EFO-21 (ovary, adherent, top dose 0.25 µM) | 0.857 | > 250 |
| EFO-27 (ovary, adherent, top dose 0.25 µM) | 0.565 | 24.6 |
| EGI-1 (biliary tract, adherent, top dose 0.25 µM) | 0.512 | 17 |
| EHEB (lymphoid neoplasm, suspension, top dose 0.25 µM) | 0.698 | 73.3 |
| EJM (lymphoid neoplasm, semi-adherent, top dose 0.25 µM) | 0.718 | 57.2 |
| EKVX (lung adenocarcinoma, adherent, top dose 0.25 µM) | 0.695 | 106 |
| EM-2 (chronic myeloid leukaemia, suspension, top dose 0.25 µM) | 0.713 | 68.5 |
| EMC-BAC-1 (lung adenocarcinoma, adherent, top dose 0.25 µM) | 0.772 | 110 |
| EMC-BAC-2 (lung adenocarcinoma, adherent, top dose 0.25 µM) | 0.392 | 7.45 |
| EN (endometrium, adherent, top dose 0.25 µM) | 0.861 | > 250 |
| ES1 (Ewing sarcoma, adherent, top dose 0.25 µM) | 0.658 | 42.7 |
| ES3 (Ewing sarcoma, adherent, top dose 0.25 µM) | 0.577 | 25.7 |
| ES4 (Ewing sarcoma, adherent, top dose 0.25 µM) | 0.578 | 26.3 |
| ES5 (Ewing sarcoma, adherent, top dose 0.25 µM) | 0.507 | 16.4 |
| ES6 (Ewing sarcoma, adherent, top dose 0.25 µM) | 0.719 | 76.6 |
| ES7 (Ewing sarcoma, adherent, top dose 0.25 µM) | 0.539 | 20 |
| ES8 (Ewing sarcoma, adherent, top dose 0.25 µM) | 0.567 | 23.4 |
| ES-2 (ovary, adherent, top dose 0.25 µM) | 0.618 | 31.6 |
| ESO26 (oesophagus, adherent, top dose 0.25 µM) | 0.859 | 188 |
| ESO51 (oesophagus, semi-adherent, top dose 0.25 µM) | 0.69 | 66.8 |
| ESS-1 (endometrium, adherent, top dose 0.25 µM) | 0.799 | 106 |
| ETK-1 (biliary tract, adherent, top dose 0.25 µM) | 0.455 | 11.6 |

The IC50 comes from the fitted curve, where viability falls to half of the control; where the fit passes the top or lowest dose, that dose stands as a limit. AUC sums up the same curve from the lowest dose to the 256-fold higher top dose: 1 means no effect, lower means more sensitive.
